According to the supplement of paper PMC9334596:
“And” between values parts separate entries of the source, which are not always exact repeats. Equal values may be shown once. In all, about 5,300 compounds were measured (“PER2::LUC luminescence relative to vehicle control”: median about 0.96, highest 2% from about 1.3 on). The list shows a part of the results.

Test system: mPer2Luc MEF
Experiment: PER2::LUC luminescence relative to vehicle control (fold of vehicle); higher = higher PER2::LUC reporter signal
Conditions: 10 µM
Outline: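 Compounds from commercial libraries were added at 10 μM to 384-well plates seeded 48 h earlier with ~3000 mPer2Luc mouse embryonic fibroblasts per well. The cells were kept in DMEM with 10% FBS at 37 °C and 5% CO2. Luminescence was read with ONE-Glo 24 h and 30 h after treatment, then an alamarBlue viability assay was run. Values are PER2::LUC luminescence relative to vehicle control, as fold change.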

Question: With `CN[C@@H]1[C@H](O)[C@H](NC)[C@H]2O[C@@]3(O)C(=O)C[C@@H](C)O[C@H]3O[C@@H]2[C@H]1O` as the molecule, how does the “PER2::LUC luminescence” value (time after treatment 24 h) read?
Answer: 1.13 and 0.92

Question: What about the “PER2::LUC luminescence” value (time after treatment 30 h) of the same molecule?
Answer: 1.01 and 0.918 and 1.03

Question: For `CCNCCNC(=O)c1c(C)[nH]c(/C=C2\C(=O)Nc3ccc(F)cc32)c1C`, which “PER2::LUC luminescence” value (time after treatment 24 h) is on record?
Answer: 0.42

Question: What about the “PER2::LUC luminescence” value (time after treatment 30 h) of the same molecule?
Answer: 0.619

Question: What does the source list for `NS(=O)(=O)c1cc2c(cc1Cl)NC(C(Cl)Cl)NS2(=O)=O` (stereo unspecified)?
Answer: PER2::LUC luminescence (time after treatment 24 h): 0.947; PER2::LUC luminescence (time after treatment 30 h): 0.802

Question: Which “PER2::LUC luminescence” value (time after treatment 24 h) does the source give for `O.O=[Si]=O.O=[Si]=O.O=[Si]=O.O=[Si]=O.[O]=[Mg].[O]=[Mg].[O]=[Mg]` here?
Answer: 1.12

Question: And the “PER2::LUC luminescence” value (time after treatment 30 h)?
Answer: 1.08

Question: `O=C1C[C@@H](c2ccc(O)c(O)c2)Oc2cc(O)cc(O)c21` was tested. Which “PER2::LUC luminescence” value (time after treatment 24 h) did it give?
Answer: 0.983

Question: What about the “PER2::LUC luminescence” value (time after treatment 30 h) of the same molecule?
Answer: 1.05

Question: How did the “PER2::LUC luminescence” value (time after treatment 24 h) turn out when `CN[C@H](CC(=O)O)C(=O)O` was run?
Answer: 0.92

Question: And the “PER2::LUC luminescence” value (time after treatment 30 h)?
Answer: 0.642

Question: Which “PER2::LUC luminescence” value (time after treatment 24 h) does the source give for `NC(=O)c1cnc(N[C@@H]2CCCC[C@@H]2N)nc1Nc1cccc(-n2nccn2)c1` here?
Answer: 0.327

Question: What about the “PER2::LUC luminescence” value (time after treatment 30 h) of the same molecule?
Answer: 0.408

Question: `CC(C)Cc1ccc([C@@H](C)C(=O)O)cc1` was tested. Which “PER2::LUC luminescence” value (time after treatment 24 h) did it give?
Answer: 0.974

Question: And the “PER2::LUC luminescence” value (time after treatment 30 h)?
Answer: 0.981

Question: Which results are given for `Cc1c(-c2ccccc2)oc2c(C(=O)OCCN3CCCCC3)cccc2c1=O`?
Answer: PER2::LUC luminescence (time after treatment 24 h): 1.09; PER2::LUC luminescence (time after treatment 30 h): 1.03

Question: `CC(=O)Oc1cc(OC(C)=O)c2c(c1)O[C@H](c1ccc(OC(C)=O)c(OC(C)=O)c1)[C@@H](OC(C)=O)C2` was tested. Which “PER2::LUC luminescence” value (time after treatment 24 h) did it give?
Answer: 0.814

Question: What about the “PER2::LUC luminescence” value (time after treatment 30 h) of the same molecule?
Answer: 0.933

Question: Which results are given for `COc1ccc(O)cc1`?
Answer: PER2::LUC luminescence (time after treatment 24 h): 1.08 and 0.874; PER2::LUC luminescence (time after treatment 30 h): 0.907 and 1.09

Question: How did the “PER2::LUC luminescence” value (time after treatment 24 h) turn out when `CC(=O)NC(Cc1ccccc1)C(=O)O` (stereo unspecified) was run?
Answer: 0.847

Question: And the “PER2::LUC luminescence” value (time after treatment 30 h)?
Answer: 0.873

Question: How did the “PER2::LUC luminescence” value (time after treatment 24 h) turn out when `CC(C)C[C@@H](C(=O)N[C@H](C(=O)OC1CCCC1)c1ccccc1)[C@H](O)C(=O)NO` was run?
Answer: 0.793

Question: What about the “PER2::LUC luminescence” value (time after treatment 30 h) of the same molecule?
Answer: 0.701

Question: How did the “PER2::LUC luminescence” value (time after treatment 24 h) turn out when `CCCCCCCCCCCCCCCCCCCCCCO` was run?
Answer: 0.715 and 1.06

Question: And the “PER2::LUC luminescence” value (time after treatment 30 h)?
Answer: 0.898 and 1.09

Question: With `NCCCC(=O)O` as the molecule, how does the “PER2::LUC luminescence” value (time after treatment 24 h) read?
Answer: 0.993 and 1.03

Question: And the “PER2::LUC luminescence” value (time after treatment 30 h)?
Answer: 0.963 and 1.15

Question: What does the source list for `CCCCCCOC(=O)NC(=N)c1ccc(NCc2nc3cc(C(=O)N(CCC(=O)OCC)c4ccccn4)ccc3n2C)cc1`?
Answer: PER2::LUC luminescence (time after treatment 24 h): 1.06 and 0.917 and 0.635; PER2::LUC luminescence (time after treatment 30 h): 0.988 and 0.952 and 1.12

Question: Which “PER2::LUC luminescence” value (time after treatment 24 h) does the source give for `O=C(OC1C[C@@H]2CC3C[C@H](C1)N2CC3=O)c1c[nH]c2ccccc12` (stereo partly specified) here?
Answer: 0.963

Question: And the “PER2::LUC luminescence” value (time after treatment 30 h)?
Answer: 0.93

Question: With `CC(C)CCC[C@@H](C)[C@H]1CC[C@H]2[C@@H]3CC(=O)[C@H]4C[C@@H](O)CC[C@]4(C)[C@H]3CC[C@]12C` as the molecule, how does the “PER2::LUC luminescence” value (time after treatment 24 h) read?
Answer: 1.01

Question: And the “PER2::LUC luminescence” value (time after treatment 30 h)?
Answer: 0.915

Question: What does the source list for `Cc1cc(C)c(CNC(=O)c2cc(-c3ccc(CN4CCOCC4)cc3)cc3c2cnn3C2CCCC2)c(=O)[nH]1`?
Answer: PER2::LUC luminescence (time after treatment 24 h): 1.09; PER2::LUC luminescence (time after treatment 30 h): 1.08

Question: What does the source list for `OC[C@H]1NC[C@H](O)[C@@H](O)[C@@H]1O`?
Answer: PER2::LUC luminescence (time after treatment 24 h): 0.994; PER2::LUC luminescence (time after treatment 30 h): 0.87

Question: How did the “PER2::LUC luminescence” value (time after treatment 24 h) turn out when `Nc1nc(-c2nn(Cc3ccccc3F)c3ncccc23)ncc1C1CC1` was run?
Answer: 0.904

Question: What about the “PER2::LUC luminescence” value (time after treatment 30 h) of the same molecule?
Answer: 0.787

Question: For `CC1(C)O[C@H]2CC(=O)OC[C@]23[C@H]2CC[C@@]4(C)[C@H](c5ccoc5)OC(=O)[C@H]5O[C@]54[C@]2(C)C(=O)C[C@@H]13`, which “PER2::LUC luminescence” value (time after treatment 24 h) is on record?
Answer: 0.948

Question: What about the “PER2::LUC luminescence” value (time after treatment 30 h) of the same molecule?
Answer: 0.964

Question: What does the source list for `CN[C@@H]1[C@@H](O[C@H]2O[C@H](CO)[C@@H](N)[C@H](O)[C@H]2O)OC2C[C@@H](N)[C@@H](O[C@H]3[C@H](O)[C@@H](O)[C@H](N)C[C@@H]3N)OC2[C@@H]1O` (stereo partly specified)?
Answer: PER2::LUC luminescence (time after treatment 24 h): 0.965; PER2::LUC luminescence (time after treatment 30 h): 1.04
